Article PMC8096781
No constants are given. Whether binding was seen depends on the method and setting. Binding seen in cells or lysates may run through a third protein. Some results given as binding are weak or reduced against the parent protein; the word gives no strength. Where a sequence is shown, tags or fusion partners need not be part of it.

Amino acid sequences for entries named in this document (tags omitted). Residues count along the entry.
UniProt Q04206: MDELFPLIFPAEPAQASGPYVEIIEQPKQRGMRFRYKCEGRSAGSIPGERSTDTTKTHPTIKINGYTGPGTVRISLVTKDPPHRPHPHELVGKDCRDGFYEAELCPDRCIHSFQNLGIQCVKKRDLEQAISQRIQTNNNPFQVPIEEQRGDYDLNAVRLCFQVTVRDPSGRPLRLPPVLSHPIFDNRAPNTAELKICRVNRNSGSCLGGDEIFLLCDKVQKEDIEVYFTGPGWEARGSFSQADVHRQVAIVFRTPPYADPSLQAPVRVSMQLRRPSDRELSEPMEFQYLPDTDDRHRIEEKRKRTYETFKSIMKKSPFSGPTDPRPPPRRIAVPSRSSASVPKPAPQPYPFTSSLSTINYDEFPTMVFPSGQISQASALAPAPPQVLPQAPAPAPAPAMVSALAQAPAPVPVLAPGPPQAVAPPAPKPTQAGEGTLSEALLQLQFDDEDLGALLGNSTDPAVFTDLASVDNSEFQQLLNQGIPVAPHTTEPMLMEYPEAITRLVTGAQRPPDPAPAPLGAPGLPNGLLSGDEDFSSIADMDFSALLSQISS
UniProt P19838, residues 1-433: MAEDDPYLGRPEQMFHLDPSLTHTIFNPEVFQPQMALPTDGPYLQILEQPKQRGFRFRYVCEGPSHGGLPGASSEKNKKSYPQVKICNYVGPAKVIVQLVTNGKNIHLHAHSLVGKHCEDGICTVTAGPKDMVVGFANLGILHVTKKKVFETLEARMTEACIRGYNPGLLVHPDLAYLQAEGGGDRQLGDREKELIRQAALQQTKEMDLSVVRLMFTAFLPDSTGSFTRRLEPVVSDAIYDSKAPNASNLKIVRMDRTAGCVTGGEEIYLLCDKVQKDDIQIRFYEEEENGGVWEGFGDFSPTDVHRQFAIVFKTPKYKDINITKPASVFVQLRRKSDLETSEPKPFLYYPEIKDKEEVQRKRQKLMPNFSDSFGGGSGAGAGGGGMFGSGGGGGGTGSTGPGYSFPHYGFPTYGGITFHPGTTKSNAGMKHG

Experiments:
Assay in all cases: co-IP; vector control and Flag-FOXM1A/B/C/D-overexpressing HeLa cells further transfected with HA-p65 or HA-p50 plasmid; anti-Flag or anti-HA antibody; western blot
HA-p65, Q04206 = settings: remark: other sources report otherwise
HA-p50 = HA-p50 (UniProt P19838)
HA-p65 = HA-p65 (UniProt Q04206)

binding (HA-p65, Q04206) | binding (HA-p50) | binding (HA-p65) | Binder
binds |  |  | Flag-FOXM1C (overexpressed in HeLa cells), Q08050-1 1-763 (protein) MKTSPRRPLILKRRRLPLPVQNAPSETSEEEPKRSPAQQESNQAEASKEVAESNSCKFPAGIKIINHPTMPNTQVVAIPNNANIHSIITALTAKGKESGSSGPNKFILISCGGAPTQPPGLRPQTQTSYDAKRTEVTLETLGPKPAARDVNLPRPPGALCEQKRETCADGEAAGCTINNSLSNIQWLRKMSSDGLGSRSIKQEMEEKENCHLEQRQVKVEEPSRPSASWQNSVSERPPYSYMAMIQFAINSTERKRMTLKDIYTWIEDHFPYFKHIAKPGWKNSIRHNLSLHDMFVRETSANGKVSFWTIHPSANRYLTLDQVFKPLDPGSPQLPEHLESQQKRPNPELRRNMTIKTELPLGARRKMKPLLPRVSSYLVPIQFPVNQSLVLQPSVKVPLPLAASLMSSELARHSKRVRIAPKVLLAEEGIAPLSSAGPGKEEKLLFGEGFSPLLPVQTIKEEEIQPGEEMPHLARPIKVESPPLEEWPSPAPSFKEESSHSWEDSSQSPTPRPKKSYSGLRSPTRCVSEMLVIQHRERRERSRSRRKQHLLPPCVDEPELLFSEGPSTSRWAAELPFPADSSDPASQLSYSQEVGGPFKTPIKETLPISSTPSKSVLPRTPESWRLTPPAKVGGLDFSPVQTSQGASDPLPDPLGLMDLSTTPLQSAPPLESPQRLLSSEPLDLISVPFGNSSPSDIDVPKPGSPEPQVSGLAANRSLTEGLVLDTMNDSLSKILLDISFPGLDEDPLGPDNINWSQFIPELQ
 | binds weakly | binds | Flag-FOXM1A (overexpressed in HeLa cells) (protein, UniProt Q08050-3 1-801) MKTSPRRPLILKRRRLPLPVQNAPSETSEEEPKRSPAQQESNQAEASKEVAESNSCKFPAGIKIINHPTMPNTQVVAIPNNANIHSIITALTAKGKESGSSGPNKFILISCGGAPTQPPGLRPQTQTSYDAKRTEVTLETLGPKPAARDVNLPRPPGALCEQKRETCADGEAAGCTINNSLSNIQWLRKMSSDGLGSRSIKQEMEEKENCHLEQRQVKVEEPSRPSASWQNSVSERPPYSYMAMIQFAINSTERKRMTLKDIYTWIEDHFPYFKHIAKPGWKNSIRHNLSLHDMFVRETSANGKVSFWTIHPSANRYLTLDQVFKPLDPGSPQLPEHLESQQKRPNPELRRNMTIKTELPLGARRKMKPLLPRVSSYLVPIQFPVNQSLVLQPSVKVPLPLAASLMSSELARHSKRVRIAPKVFGEQVVFGYMSKFFSGDLRDFGTPITSLFNFIFLCLSVLLAEEGIAPLSSAGPGKEEKLLFGEGFSPLLPVQTIKEEEIQPGEEMPHLARPIKVESPPLEEWPSPAPSFKEESSHSWEDSSQSPTPRPKKSYSGLRSPTRCVSEMLVIQHRERRERSRSRRKQHLLPPCVDEPELLFSEGPSTSRWAAELPFPADSSDPASQLSYSQEVGGPFKTPIKETLPISSTPSKSVLPRTPESWRLTPPAKVGGLDFSPVQTSQGASDPLPDPLGLMDLSTTPLQSAPPLESPQRLLSSEPLDLISVPFGNSSPSDIDVPKPGSPEPQVSGLAANRSLTEGLVLDTMNDSLSKILLDISFPGLDEDPLGPDNINWSQFIPELQ
 |  | binds | Flag-FOXM1B (overexpressed in HeLa cells) (protein, UniProt Q08050-2 1-748) MKTSPRRPLILKRRRLPLPVQNAPSETSEEEPKRSPAQQESNQAEASKEVAESNSCKFPAGIKIINHPTMPNTQVVAIPNNANIHSIITALTAKGKESGSSGPNKFILISCGGAPTQPPGLRPQTQTSYDAKRTEVTLETLGPKPAARDVNLPRPPGALCEQKRETCADGEAAGCTINNSLSNIQWLRKMSSDGLGSRSIKQEMEEKENCHLEQRQVKVEEPSRPSASWQNSVSERPPYSYMAMIQFAINSTERKRMTLKDIYTWIEDHFPYFKHIAKPGWKNSIRHNLSLHDMFVRETSANGKVSFWTIHPSANRYLTLDQVFKQQKRPNPELRRNMTIKTELPLGARRKMKPLLPRVSSYLVPIQFPVNQSLVLQPSVKVPLPLAASLMSSELARHSKRVRIAPKVLLAEEGIAPLSSAGPGKEEKLLFGEGFSPLLPVQTIKEEEIQPGEEMPHLARPIKVESPPLEEWPSPAPSFKEESSHSWEDSSQSPTPRPKKSYSGLRSPTRCVSEMLVIQHRERRERSRSRRKQHLLPPCVDEPELLFSEGPSTSRWAAELPFPADSSDPASQLSYSQEVGGPFKTPIKETLPISSTPSKSVLPRTPESWRLTPPAKVGGLDFSPVQTSQGASDPLPDPLGLMDLSTTPLQSAPPLESPQRLLSSEPLDLISVPFGNSSPSDIDVPKPGSPEPQVSGLAANRSLTEGLVLDTMNDSLSKILLDISFPGLDEDPLGPDNINWSQFIPELQ
